In the supplement of paper PMC4967469 one finds AUC and IC50 data, which are given here for 15 cell lines.

Common to all, as to assay: Viability of human cancer cell lines after 72 h of drug (GDSC screen)
Compound in one assay: Nc1cccc2c1CN(C1CCC(=O)NC1=O)C2=O [Lenalidomide]
The conditions noted are these: top dose 5 µM; top dose inferred. How it is done: (§1)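 Human cancer cell lines in 384-well plates, medium with 10% serum, drug for 72 h over a 256-fold dose range (nine 2-fold or five 4-fold steps up to the top dose). Adherent lines were fixed and stained with the nucleic acid dye Syto60, suspension lines read with resazurin; signal relative to control wells, capped at 0 and 100%. One two-parameter sigmoid per drug and line, fitted in a mixed model over all curves with the slope shared within a line.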

Compound in the next assay: COc1ccc(COc2ccc(Cc3cnc(N)nc3N)cc2OC)cc1 [GW-2580]
The conditions noted are these: top dose 20 µM; top dose inferred. How it is done:
as §1

Compound in the next assay: CC(C)N(CCCNC(=O)Nc1ccc(C(C)(C)C)cc1)C[C@H]1O[C@@H](n2cc(Br)c3c(N)ncnc32)[C@H](O)[C@@H]1O [SGC0946]
The conditions noted are these: top dose 0.5 µM; top dose inferred. As for the experimental part:
as §1

Compound in another assay: CCC/C=C/C=C/C(=O)O[C@H]1/C(=C/C(=O)OC)C[C@H]2C[C@H]([C@@H](C)O)OC(=O)C[C@H](O)C[C@@H]3C[C@H](OC(C)=O)C(C)(C)[C@](O)(C[C@@H]4C/C(=C/C(=O)OC)C[C@H](/C=C/C(C)(C)[C@]1(O)O2)O4)O3 [Bryostatin 1]
The conditions noted are these: top dose 0.008 µM; top dose inferred. As for the experimental part: as §1

The IC50 comes from the fitted curve, where viability falls to half of the control; fits outside the tested doses are given as limits. For AUC the same curve is integrated over the 256-fold range of doses and scaled to a fraction; it is 1 without any effect and falls as sensitivity rises. An inferred top dose was calculated from the reported fits.

With HCC1143 (breast, adherent), the AUC with Lenalidomide was determined as 0.976; with GW-2580, 0.98; in the assay with SGC0946, 0.966; in the assay with Bryostatin 1 it was 0.913. Moreover, the IC50 (usually the point on the concentration scale where inhibition reaches its midpoint) with Lenalidomide is > 5000 nM; with GW-2580, > 20000 nM; with SGC0946, > 500 nM; with Bryostatin 1, > 8 nM.
HCC1395 (breast, adherent): the AUC with Lenalidomide was 0.984; in the assay with GW-2580 it was 0.985; with SGC0946, 0.981; with Bryostatin 1 it was 0.968. Further, the IC50 with Lenalidomide is > 5000 nM; in the assay with GW-2580 it was > 20000 nM; with SGC0946, > 500 nM; with Bryostatin 1, > 8 nM.
On to HCC1419 (breast, adherent), for which the AUC was determined as 0.954 with Lenalidomide, 0.974 with GW-2580, 0.98 with SGC0946 and 0.975 with Bryostatin 1. Besides, the half-inhibitory concentration (IC50) was > 5000 nM with Lenalidomide, > 20000 nM with GW-2580, > 500 nM in the assay with SGC0946 and > 8 nM in the assay with Bryostatin 1.
As for HCC1428 (breast, adherent), the AUC stood at 0.983 with Lenalidomide, 0.988 with GW-2580, 0.986 in the assay with SGC0946 and 0.965 in the assay with Bryostatin 1. In addition, the IC50 is > 5000 nM with Lenalidomide, > 20000 nM with GW-2580, > 500 nM with SGC0946 and > 8 nM with Bryostatin 1.
For the cell line HCC1500 (breast, adherent), the AUC was found to be 0.985 with Lenalidomide, 0.987 with GW-2580, 0.984 with SGC0946 and 0.987 with Bryostatin 1. Moreover, the half-inhibitory concentration (IC50) is > 5000 nM with Lenalidomide, > 20000 nM with GW-2580, > 500 nM in the assay with SGC0946 and > 8 nM with Bryostatin 1.
Turning to HCC1569 (breast, adherent), the AUC in the assay with Lenalidomide worked out at 0.978; with GW-2580, 0.973; with SGC0946, 0.978; with Bryostatin 1 it was 0.932. Further, the IC50 is > 5000 nM with Lenalidomide, > 20000 nM in the assay with GW-2580, > 500 nM with SGC0946 and > 8 nM with Bryostatin 1.
Regarding HCC1937 (breast, adherent), the AUC with Lenalidomide was 0.952; in the assay with GW-2580, 0.985; with SGC0946 it was 0.97; with Bryostatin 1, 0.977. Besides, the IC50 with Lenalidomide is > 5000 nM; with GW-2580, > 20000 nM; in the assay with SGC0946, > 500 nM; with Bryostatin 1 it was > 8 nM.
As to HCC1954 (breast, adherent), the AUC with Lenalidomide came to 0.978; with GW-2580, 0.976; with SGC0946 it was 0.983; in the assay with Bryostatin 1, 0.921. Further, the IC50 with Lenalidomide was > 5000 nM; in the assay with GW-2580, > 20000 nM; with SGC0946, > 500 nM; in the assay with Bryostatin 1 it was > 8 nM.
Regarding HCC2157 (breast, suspension), the AUC with Lenalidomide worked out at 0.979; with GW-2580, 0.948; in the assay with SGC0946, 0.96; with Bryostatin 1 it was 0.985. Further, the IC50 in the assay with Lenalidomide is > 5000 nM; with GW-2580, > 20000 nM; with SGC0946, > 500 nM; with Bryostatin 1 it was > 8 nM.
As for HCC2218 (breast, suspension), the AUC in the assay with Lenalidomide turned out to be 0.977; with GW-2580 it was 0.922; with SGC0946, 0.98; with Bryostatin 1, 0.983. Further, the 50% inhibitory concentration (IC50) with Lenalidomide was > 5000 nM; with GW-2580, > 20000 nM; with SGC0946 it was > 500 nM; with Bryostatin 1, > 8 nM.
On to “HCC-15 (lung squamous cell carcinoma, adherent)”, for which the AUC was 0.968 in the assay with Lenalidomide, 0.98 in the assay with GW-2580, 0.968 with SGC0946 and 0.963 in the assay with Bryostatin 1. The half-maximal inhibitory concentration (IC50) with Lenalidomide is > 5000 nM; with GW-2580 it was > 20000 nM; with SGC0946 it was > 500 nM; with Bryostatin 1, > 8 nM.
As for HCC-44 (lung adenocarcinoma, adherent), the AUC in the assay with Lenalidomide was found to be 0.981; with GW-2580 it was 0.977; with SGC0946, 0.985; in the assay with Bryostatin 1, 0.904. Moreover, the IC50 with Lenalidomide is > 5000 nM; with GW-2580, > 20000 nM; in the assay with SGC0946 it was > 500 nM; in the assay with Bryostatin 1, > 8 nM.
With HCC-56 (large intestine, adherent), the AUC with Lenalidomide was determined as 0.987; with GW-2580, 0.986; with SGC0946, 0.986; with Bryostatin 1 it was 0.983. Besides, the concentration for half-maximal inhibition (IC50) in the assay with Lenalidomide is > 5000 nM; with GW-2580, > 20000 nM; with SGC0946 it was > 500 nM; with Bryostatin 1, > 8 nM.
Turning to HCC-78 (lung adenocarcinoma, adherent), the AUC with Lenalidomide is 0.981; with GW-2580 it was 0.961; in the assay with SGC0946, 0.955; with Bryostatin 1, 0.967. In addition, the half-maximal inhibitory concentration (IC50) is > 5000 nM in the assay with Lenalidomide, > 20000 nM with GW-2580, > 500 nM with SGC0946 and > 8 nM in the assay with Bryostatin 1.
For HCC-827 (lung adenocarcinoma, adherent), the AUC in the assay with Lenalidomide came out at 0.98; with GW-2580, 0.98; in the assay with SGC0946, 0.983; with Bryostatin 1, 0.944. In addition, the IC50 with Lenalidomide is > 5000 nM; with GW-2580, > 20000 nM; with SGC0946, > 500 nM; with Bryostatin 1, > 8 nM.
